In all, about 270,000 compounds went through this assay and about 5,800 (2.1%) were called active. The inconclusive results got no clear call from the source; some entries with a clear call stand among them for comparison. Calls come from the whole dose curve; as a rule, active = well fitted inhibition curve with a large enough effect; inconclusive = small, poorly fitted or top-dose-only effect; inactive = flat fitted curve, though single readings scatter. Potencies beside an inconclusive call are fits to weak or partial responses and may not hold up. Some structures have more than one record in an assay (separate samples or runs), and their calls can disagree.
These compounds were tested against Microtubule-associated protein tau (Homo sapiens) (UniProt P10636) (assay: qHTS for Inhibitors of Tau Fibril Formation, Thioflavin T Binding). Conditions: recombinant tau K18 P301L, heparin-induced fibrillization, ThT fluorescence; series mostly up to 57.4 µM; activity, negative = inhibition: at the top concentration.
In short: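 Using a mix of unlabeled (15 uM) and Alexa 594-labeled (0.24 uM) tau K18 P301L, heparin-triggered fibrillization over 6 hr at 37 C was scored by ThT fluorescence.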
% is set by controls: 0 for no effect and ±100 for the full control effect; potency is the fitted concentration of half-maximal effect; tags give direction and shape of the fitted curve.
Note: nearly all actives have a fitted effect of over 55% in size.

Chain of UniProt P10636 (P10636 whole entry, looked up): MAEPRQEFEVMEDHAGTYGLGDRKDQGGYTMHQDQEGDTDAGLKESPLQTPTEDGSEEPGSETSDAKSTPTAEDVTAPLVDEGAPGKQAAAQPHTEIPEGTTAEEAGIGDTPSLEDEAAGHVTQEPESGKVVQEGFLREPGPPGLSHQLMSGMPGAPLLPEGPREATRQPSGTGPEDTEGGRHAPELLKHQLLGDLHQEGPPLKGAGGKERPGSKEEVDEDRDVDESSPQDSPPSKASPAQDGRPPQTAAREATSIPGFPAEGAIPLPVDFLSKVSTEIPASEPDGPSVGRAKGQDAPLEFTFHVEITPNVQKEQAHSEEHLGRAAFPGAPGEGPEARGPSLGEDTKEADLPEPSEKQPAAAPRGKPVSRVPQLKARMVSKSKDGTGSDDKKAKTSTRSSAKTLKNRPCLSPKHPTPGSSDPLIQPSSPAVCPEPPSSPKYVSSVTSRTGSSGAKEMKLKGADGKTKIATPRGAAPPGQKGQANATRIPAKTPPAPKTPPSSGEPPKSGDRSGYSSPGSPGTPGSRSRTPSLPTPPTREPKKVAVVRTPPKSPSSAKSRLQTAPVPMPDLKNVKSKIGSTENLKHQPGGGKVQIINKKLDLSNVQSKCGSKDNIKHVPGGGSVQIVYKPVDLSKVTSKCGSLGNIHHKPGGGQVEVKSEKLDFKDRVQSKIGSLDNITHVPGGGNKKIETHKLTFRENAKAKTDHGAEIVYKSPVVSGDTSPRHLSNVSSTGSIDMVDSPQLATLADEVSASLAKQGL

Structure (SMILES) | Potency | activity, negative = inhibition
CCOC(=O)c1ccc(N2CSC3=C(C#N)C(c4cccs4)CC(=O)N3C2)cc1 (stereo not given) | inconclusive: 28.2 µM [inhibitor, partial curve] | 
Fc1ccc(-c2nnc3sc(C4COc5ccccc5O4)nn23)cc1 (stereo not given) | inconclusive: 31.6 µM [inhibitor, single point] | 
Cc1csc(NC(=O)CSc2ccc(-c3ccccc3)nn2)n1 | inconclusive: 20 µM [inhibitor, partial curve] | 
Cc1ccc2sc(-c3ccc(NC(=O)CCN4C(=O)c5ccccc5C4=O)cc3)nc2c1 | inconclusive: 0.708 µM [inhibitor, full curve] | 
Cc1[nH]c(=O)[nH]c(=O)c1NS(=O)(=O)c1ccccc1 |  | inactive: -6.69%
COc1ccc(NCc2cc3cc4c(cc3n(CC(=O)Nc3ccc(C)cc3)c2=O)OCO4)cc1 |  | inactive: -22.1%
CC(=O)Oc1ccc(C(=O)Nc2cc(NC(=O)c3ccc(OC(C)=O)cc3)cc(C(=O)NC(C)(C)C)c2)cc1 | inconclusive: 20 µM [inhibitor, partial curve] | 
Cc1ccc(-n2nccc2-c2nn(-c3cccc(C(F)(F)F)c3)c(=O)n(C)c2=O)cc1 |  | inactive: 6.45%
COc1ccccc1-c1nnc(SCCN2CCOCC2)n1-c1ccc(C)cc1 |  | inactive: -4.63%
Cc1nnc2sc(SCC(=O)Nc3nccs3)nn2c1=O | inconclusive: 14.1 µM [inhibitor, partial curve] | 
CCOc1ccc(C(=O)Nc2ccccc2C(=O)O)cc1 |  | inactive: 8.33%
COc1ccc(C2Nc3cccc4cccc(c34)N2)cc1 | active: 15.8 µM | 
COc1ccc(NC(=O)CSc2nnc(-c3cccs3)o2)cc1 |  | inactive: -6.95%
CC(=O)C(C(C)=O)c1c(Cl)c(O)c(O)c2c(C(=O)c3ccccc3)coc12 | active: 15.8 µM | 
O=C(OCC(=O)N1CCN(S(=O)(=O)c2ccccc2)CC1)c1ccc([N+](=O)[O-])o1 |  | inactive: 1.61%
Cc1ccc(NC(=O)CSC2=NN3CCCC(=O)N=C3S2)c(C)c1 | inconclusive: 44.7 µM [inhibitor, single point] | 
COc1cc(Cl)c(C)cc1NC(=O)CSc1ncc(S(=O)(=O)c2ccc(C(C)(C)C)cc2)c(=O)[nH]1 | inconclusive: 22.4 µM [inhibitor, partial curve] | 
COc1cccc(/C(C)=N/NC(=O)c2cc(-c3cccnc3)nc3ccccc23)c1 | inconclusive: 39.8 µM [inhibitor, single point] | 
COc1ccc(C(=O)NC(=S)Nc2ccc([N+](=O)[O-])cc2C)cc1OC | inconclusive: 3.55 µM [inhibitor, partial curve] | 
O=C(O)CCCNC(=O)/C=C/c1ccco1 | inconclusive: 20 µM [inhibitor, partial curve] | 
Cc1cc(C(=O)N/N=C/c2ccccc2[N+](=O)[O-])c(C)o1 | inconclusive: 12.6 µM [inhibitor, partial curve, poor fit] | 
CCOC(=O)c1c(C)[nH]sc1=S |  | inactive: -7.81%
COc1ccc(C2C(C(=O)/C=C/c3ccco3)=C(O)C(=O)N2CCN2CCOCC2)cc1OC (stereo not given) | inconclusive: 28.2 µM [inhibitor, partial curve] | 
CN1c2ccccc2C(C)(C)C12CC(c1ccc(Cl)c(S(=O)(=O)N3CCCC3)c1)=NO2 (stereo not given) |  | inactive: -5.61%

Structure (SMILES) | Potency | activity, negative = inhibition
COc1ccc2c(c1OC)C(=O)OC2Nc1nc(-c2ccc(-c3ccccc3)cc2)cs1 (stereo not given) |  | inactive: 0.277%
COC(=O)C(N)Cc1ccc(O)cc1 (stereo not given) |  | inactive: -1.74%
Cc1ccc2c(c1)CCCN2C(=O)Nc1ccc2c(c1)OCO2 | inconclusive: 31.6 µM [inhibitor, single point] | 
CCOc1ccc(NC(=O)Nc2ccc3nccnc3c2)cc1 | inconclusive: 17.8 µM [inhibitor, partial curve] | 
CCOc1ccc(CC(=O)N2CCN=C2SCc2ccc([N+](=O)[O-])cc2)cc1 | inconclusive: 20 µM [inhibitor, single point] | 
CSc1nsc(SCC(=O)Nc2nc3ccc(C)cc3s2)n1 | inconclusive: 1 µM [inhibitor, full curve] | 
CCc1nnc(NS(=O)(=O)c2ccc(N/C=C\C(=O)c3ccc4ccccc4c3)cc2)s1 |  | inactive: -8.88%
CC(C)CCN(Cc1ccco1)C(=O)c1cc2c(Cl)nc3ccccc3c2s1 | inconclusive: 20 µM [inhibitor, single point] | 
Cc1cc2cc(C=C(C#N)C#N)c(Cl)nc2cc1C | active: 3.16 µM | 
C=CCn1c(O)c(N=NC(=O)CNC(=O)c2cccs2)c2ccccc21 | inconclusive: 15.8 µM [inhibitor, single point] | 
Cc1cc(Cl)ccc1OC(C)C(=O)NCCCCc1ccccc1 (stereo not given) | inconclusive: 31.6 µM [inhibitor, single point] | 
Cc1ccc(Sc2c(C)nn(C(=O)c3cccc(S(=O)(=O)N4CCOCC4)c3)c2C)cc1 | inconclusive: 15.8 µM [inhibitor, partial curve] | 
C=CCn1c(=S)[nH]c2scc(-c3cccs3)c2c1=O | inconclusive: 8.91 µM [inhibitor, partial curve, poor fit] | 
CCOc1ccc(/C=N/Nc2nncc(-c3ccccc3)n2)cc1OC | active: 2.24 µM | 
CCCC(=O)Nc1nnc(S(=O)(=O)N2CCCCCC2)s1 | inconclusive: 14.1 µM [inhibitor, partial curve] | 
Cc1ccc(Cl)cc1NC(=O)Cn1c(=O)n(CCC(=O)NCc2ccc3c(c2)OCO3)c(=O)c2sccc21 |  | inactive: 5.27%
CCOc1c2ccc(C(=O)NCCc3ccc(C)cc3)cc2nn1CC | inconclusive: 8.91 µM [inhibitor, partial curve] | 
CC(=O)c1ccc(Nc2cc(C)nc3ccccc23)cc1 | inconclusive: 39.8 µM [inhibitor, partial curve] | 
N=c1oc2ccccc2cc1-c1nc2ccccc2c(=O)[nH]1 | inconclusive: 4.47 µM [inhibitor, partial curve] | 
CCOc1ccc(CCNC(=O)c2ccc3c(c2)N(Cc2ccc(C)cc2)CCS3)cc1 | inconclusive: 31.6 µM [inhibitor, partial curve] | 
COc1ccc(OC)c(NC(=O)Cn2c(CCC(=O)O)ccc2-c2cccs2)c1 |  | inactive: -8.53%
CCn1c(COc2ccc(C)cc2)nnc1SCC(=O)Nc1ccc(S(N)(=O)=O)cc1 | inconclusive: 4.47 µM [inhibitor, partial curve] | 
[O-]/C(=C(\C(=S)Nc1cccc2ccccc12)[n+]1cccc(CO)c1)c1ccc(Cl)s1 | active: 14.1 µM | 
COc1ccc(-n2cc(-c3ccccc3)c3c(Nc4ccc(OC)c(OC)c4)ncnc32)cc1 | inconclusive: 1.26 µM [inhibitor, full curve, poor fit] | 

Structure (SMILES) | Potency | activity, negative = inhibition
COC(=O)c1ccc(Oc2c(C)oc3cc(OCc4cnn(-c5ccccc5)c4)ccc3c2=O)cc1 |  | inactive: -8.32%
COc1cc(OC)c(NC(=O)Nc2cccc(OCc3cc(=O)n4ccccc4n3)c2)cc1Cl | inconclusive: 3.16 µM [inhibitor, full curve] | 
CCc1ccc2nc(NC(=O)c3ccc(N4C(=O)CCC4=O)cc3)sc2c1 |  | inactive: -4.32%
COc1ccccc1NC(=O)CC(=O)CSc1nnc(-c2ccc(C)cc2)n1C | inconclusive: 28.2 µM [inhibitor, single point] | 
Cn1/c(=N/NC(=O)c2ccccc2Br)sc2ccccc21 | inconclusive: 31.6 µM [inhibitor, partial curve, poor fit] | 
NC(=O)COC(=O)c1ccccc1Nc1ccc(SC(F)F)cc1 | inconclusive: 31.6 µM [inhibitor, single point] | 
COC(=O)CSC1=NS(=O)(=O)c2ccccc21 |  | inactive: -14.8%
Nc1nc(Sc2c([N+](=O)[O-])cc(C(F)(F)F)cc2[N+](=O)[O-])n[nH]1 | inconclusive: 15.8 µM [inhibitor, partial curve] | 
Cc1cc2nn(-c3ccc(F)cc3)nc2cc1NC(=O)c1cccc2c(Cl)cccc12 |  | inactive: 0.0889%
COc1ccc(CCNC(=S)N2CCC(C(=O)c3ccc(F)cc3)CC2)cc1OC | inconclusive: 31.6 µM [inhibitor, single point] | 
O=C(N/N=C/c1ccncc1)c1cccc(S(=O)(=O)Nc2ccc(Cl)cc2)c1 |  | inactive: 2.59%
COc1ccc(/C(N)=N/OC(=O)COc2ccccc2Cl)cc1 | inconclusive: 22.4 µM [inhibitor, single point] | 
CCOC(=O)C(C)On1c(-c2cccc(Cl)c2)nc2ccc([N+](=O)[O-])cc21 (stereo not given) | inconclusive: 31.6 µM [inhibitor, partial curve] | 
Cc1nnc(NC(=O)CSc2nc(C(C)C)nc3ccccc23)s1 | inconclusive: 35.5 µM [inhibitor, single point] | 
COc1ccc(CCNC(=S)NC(=O)/C=C/c2ccc(C)cc2)cc1OC | inconclusive: 2 µM [inhibitor, full curve] | 
CCOCCn1c(N2CCN(c3ccccc3)CC2)nc2c1c(=O)n(C)c(=O)n2C |  | inactive: -14.5%
O=C1C(Cl)=C(NCCN2CCOCC2)C(=O)c2ncccc21 | active: 12.6 µM | 
CC1(OC(=O)CCc2ccccc2)C(=O)C=C2C=C(c3ccc(C#N)cc3)N(Cc3ccccc3)C=C2C1=O (stereo not given) | active: 8.91 µM | 
O=C(N/N=C/c1ccc(O)cc1)/C(=C/c1ccc([N+](=O)[O-])cc1)NC(=O)c1ccccc1 | inconclusive: 1.12 µM [inhibitor, partial curve] | 
CC1(c2ccccc2)CC(C)(C)N(C(=O)c2cccc(Cl)c2)c2ccccc21 (stereo not given) |  | inactive: -10.5%
Nc1cccc(/C=C/c2ccncc2)c1 | inconclusive: 39.8 µM [inhibitor, single point] | 
O=C(CN1CCc2ccccc21)Nc1ccc2c(c1)OCO2 | inconclusive: 28.2 µM [inhibitor, single point] | 

From PubChem BioAssay AID1460 (National Center for Advancing Translational Sciences (NCATS), 2008)
